In assay [1] the target is T1, human B7-H7 on the cell surface (human, UniProt Q9UM44 23-414).
T1 construct: whole, on cells; also called hB7-H7; hu B7-H7
T1 sequence (looked up): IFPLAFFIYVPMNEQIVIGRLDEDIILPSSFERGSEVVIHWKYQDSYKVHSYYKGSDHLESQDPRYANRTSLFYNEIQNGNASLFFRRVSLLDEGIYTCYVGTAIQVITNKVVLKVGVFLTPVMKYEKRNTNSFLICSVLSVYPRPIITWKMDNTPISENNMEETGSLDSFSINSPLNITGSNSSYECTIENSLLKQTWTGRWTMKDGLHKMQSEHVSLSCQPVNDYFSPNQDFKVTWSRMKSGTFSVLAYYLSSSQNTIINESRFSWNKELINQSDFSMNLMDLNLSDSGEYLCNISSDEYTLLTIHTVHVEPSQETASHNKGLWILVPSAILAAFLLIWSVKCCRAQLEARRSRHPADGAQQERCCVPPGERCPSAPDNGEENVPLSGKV
Kind of assay: flow cytometry, LS180 cells. As for the experimental part:
(§1) This example was intended to study the in vitro activity of H2L2 monoclonal antibodies against human B7-H7 in binding to human/cynomolgus monkey B7-H7. Since homologous molecules of B7-H7 were not present in mice, the detection was not performed. […] The cells were adjusted to a cell density of 1×10⁶ cells/mL, respectively. The cells were seeded in a 96-well V-bottom plate (Corning, #3894) at 100 μL/well, and the antibody to be tested at 2× final concentration with 3-fold concentration gradient dilution was then added at 100 μL/well. The cells were incubated at 4° C. for 2 hours in the dark. After the incubation, the cells were rinsed twice by adding pre-chilled PBS containing 2% BSA at 100 μl/well, and centrifuged at 500 g at 4° C. for 5 minutes, and the supernatant was discarded. […] The cells were washed twice by adding pre-chilled PBS containing 2% BSA at 100 μL/well, and centrifuged at 500 g at 4° C. for 5 minutes, and the supernatant was discarded. Finally, the cells were resuspended in pre-chilled PBS containing 2% BSA at 200 μL/well, and the fluorescence signal values were read using an ACEA Novocyte3000 flow cytometer.
On the technique in general: A flow cytometer gives signals particle by particle.

Assay [2] deals with T1, human B7-H7 on the cell surface. Put plainly: flow cytometry on HEK-293/hB7-H7 cells after 0-14 days in 90% human serum at 37 C. As for the experimental part: The cells were adjusted to a cell density of 1×10⁶ cells/mL, respectively. The cells were seeded in a 96-well V-bottom plate (Corning, #3894) at 100 μL/well, and the antibody to be tested at 2× final concentration with 3-fold concentration gradient dilution was then added at 100 μL/well. The cells were incubated at 4° C. for 2 hours in the dark. After the incubation, the cells were rinsed twice by adding pre-chilled PBS containing 2% BSA at 100 μL/well, and centrifuged at 500 g at 4° C. for 5 minutes, and the supernatant was discarded. […] The cells were washed twice by adding pre-chilled PBS containing 2% BSA at 100 μL/well, and centrifuged at 500 g at 4° C. for 5 minutes, and the supernatant was discarded. Finally, the cells were resuspended in pre-chilled PBS containing 2% BSA at 200 μL/well, and the fluorescence signal values were read using an ACEA Novocyte3000 flow cytometer.

Assay [3] deals with T2, biotinylated human B7-H7 protein (Acro Biosystems, B77-H82F5) (human, UniProt Q9UM44 23-344, biotinylated).
T2 construct: Bought soluble protein; also called biotin-B7H7 protein
T2 sequence (looked up): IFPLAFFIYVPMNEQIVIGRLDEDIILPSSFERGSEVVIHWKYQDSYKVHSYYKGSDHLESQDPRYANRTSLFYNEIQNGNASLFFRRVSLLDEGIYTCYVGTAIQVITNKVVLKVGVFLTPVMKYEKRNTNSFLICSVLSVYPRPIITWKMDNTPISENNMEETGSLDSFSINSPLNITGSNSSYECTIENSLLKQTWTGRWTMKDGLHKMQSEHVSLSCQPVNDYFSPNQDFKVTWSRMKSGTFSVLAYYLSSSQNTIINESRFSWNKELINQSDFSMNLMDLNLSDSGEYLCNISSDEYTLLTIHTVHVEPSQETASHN
Put plainly: BLI epitope competition on SA-captured biotinylated B7-H7; competitor (first antibody) PR003249. The method, then:
Epitope competition experiments were performed on the anti-B7-H7 antibodies using the ForteBio Octet Red96e platform with the same experimental buffer as described above. […] After being equilibrated in a buffer for 120 s, the sensors were immersed in various antibodies diluted to 100 nM for 240 s, and the final signal of the antibody binding to B7-H7 was recorded as the 100% signal for that antibody. Second step, epitope competition experiment: B7-H7 was captured using SA sensors at a capture height of 0.25 nm. The sensors were immersed in a first antibody (concentration: 100 nM) for 240 s, then the SA sensors were immersed in a mixture of the first antibody and a second antibody (final concentration of both antibodies: 100 nM) for 240 s, and the difference in signals before and after immersing the sensors in the mixture of the two antibodies was recorded as the signal for that antibody as the second antibody. The inhibition rate was calculated by the following equation, […]

The target of assay [4] is T1, human B7-H7 on the cell surface. Kind of assay: flow cytometry, HCC827 cells. The method, then:
as §1

Assay [5] addresses T3, human B7-H7 recombinant protein (human, UniProt Q9UM44 23-344).
T3 construct: also called human B7-H7 protein
T3 sequence (looked up): T2 sequence (looked up)
Put plainly: BLI (Octet), antibody captured on AHC sensor, human B7-H7 in solution, 1:1 global fit. The method, then:
The binding kinetics between antigen and antibody was analyzed using an Octet Red 96e (Fortebio) molecular interaction analyzer by biolayer interferometry (BLI) technology.
For determining the affinity of antibodies for antigens, the rotary speed of the sensor was set at 1000 rpm. AHC sensors (Fortebio, #18-5060) placed in one column were first equilibrated in a test buffer for 10 minutes, and then used to capture the anti-B7-H7 antibodies at a capture height of 0.7 nm; and after being equilibrated in the buffer for 120 s, the AHC sensors bound to human B7-H7 (concentrations: 50-3.125 nM and 0 nM) with 2-fold gradient dilution for 180 s and dissociated for 300 s. The AHC sensors were finally regenerated by immersing in a 10 mM glycine-hydrochloric acid solution with pH 1.5 to elute the protein bound to the sensors.
For data analysis using Octet Data Analysis software (Fortebio, version 11.0), 0 nM well was used as the reference well, reference subtraction was performed, “1:1 Global fitting” method was selected for data fitting, the kinetic parameters of the binding of the antigen to the antigen-binding protein were calculated, and the kₒₙ (1/Ms) value, kdis (1/s) value and KD (M) value were obtained.
(In general: In BLI a coated tip is dipped into the sample, and binding shifts an interference pattern.)

B1: PR004262 (antibody, human IgG1, kappa)
heavy: QVQLVESGGGVVQPGRSLRLSCAASGFTFSNYGMHWVRQVPGKGLEWVAVIWYDGSEKDYADSVKGRFTISRDNSKNTLYLQMNSLRVEDTAVYYCAKDLISGIYYVDHWGQGTLVTVSSASTKGPSVFPLAPSSKSTSGGTAALGCLVKDYFPEPVTVSWNSGALTSGVHTFPAVLQSSGLYSLSSVVTVPSSSLGTQTYICNVNHKPSNTKVDKKV[not shown - human IgG1 Fc with changes]
light: DIQMTQSPSSLSASVGDRVTITCRASQGISNYLAWYQQKPGKVPKLLIYAASTLQSGVPSRFSGSGSGTDFTLTISSLQPEDVATYYCQKYNSAPFTFGPGTKVDIKRTVAAPSVFIFPPSDEQLKSGTASVVCLLNNFYPREAKVQWKVDNALQSGNSQESVTEQDSKDSTYSLSSTLTLSKADYEKHKVYACEVTHQGLSSPVTKSFNRGEC
notes: Variant of PR003259; Human IgG1 with LALA mutation in Fc
B1: in assay [1], the EC50 came out at 0.033 nM and the “Maximum MFI” value worked out at 25900 MFI. Also, the “EC50 (read off the curve)” value in assay [2] is roughly 1 nM.

B2: PR003259 (antibody, human IgG1, kappa)
heavy: QVQLVESGGGVVQPGRSLRLSCAASGFTFSNYGMHWVRQVPGKGLEWVAVIWYDGSEKDYADSVKGRFTISRDNSKNTLYLQMNSLRVEDTAVYYCAKDLISGIYYVDHWGQGTLVTVSS[not shown - human IgG1 constant region]
light: B1 light
notes: Human IgG1; also called 68F3A2
For B2, in assay [3], the “Competitive inhibition rate (%)” value was 110%. Also, the “Maximum MFI” value in assay [4] came to 68200 MFI. In addition, in assay [5], the Kd worked out at 1.64 nM, the koff came out at 0.000124 s⁻¹ and the kon was found to be 75300 M⁻¹ s⁻¹.

B3: PR004261 (antibody, human IgG1, kappa)
heavy: QVQLVESGGGVVQPGRSLRLSCAASGFTFSDYGIHWVRQAPGKGLEWVAVIWYDGSDKYYADSVRGRFTISRDNSKNTLSLQMNSLRVEDTAVYYCARDRSSGAMGYFVYWGQGTLVTVSSASTKGPSVFPLAPSSKSTSGGTAALGCLVKDYFPEPVTVSWNSGALTSGVHTFPAVLQSSGLYSLSSVVTVPSSSLGTQTYICNVNHKPSNTKVDKKV[not shown - human IgG1 Fc with changes]
light: [not shown - about 100 residues][not shown - about 100 residues]
notes: Variant of PR003249; Human IgG1 with LALA mutation in Fc
Turning to B3, in assay [1], the response was half-maximal at 0.034 nM (EC50) and the “Maximum MFI” value was 26900 MFI. Further, the “EC50 (read off the curve)” value in assay [2] was roughly 1 nM.

A word on the EC50: it is the concentration giving half of the maximal effect. A higher EC50 goes with a less potent agent. What is called EC50 (read off the curve) is the concentration that produces a half-maximal response. Higher therefore signals lower potency in that assay. Broadly, the Kd is the concentration at which binding is half-saturated. The term koff denotes a measure of how fast the partners let go of each other. In general, kon refers to the rate constant with which the complex forms.
